# Assay results from PubChem BioAssay AID488969 (Vanderbilt High Throughput Screening Facility, 2010).
# Over roughly 110,000 compounds, “z-score” has its median near -0.1; the highest 2% begin near 2. The list shows a part of the results. Active and inactive are the calls of the source.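 The calls were made as follows: active = z-score in the third read window above 3 or below -3; inactive = the rest.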
# Biological target: Metabotropic glutamate receptor 8 (Rattus norvegicus) (UniProt P70579)
# Assay: mGluR8 Gi/Go-coupled signaling modulation – cell-based, rat, thallium flux, HTS, primary screen (AID 488969)
# Conditions: HEK293 rat mGluR8, GIRK (G protein-gated inwardly rectifying potassium channel) thallium flux, FluoZin2; at 10 µM; stronger effect = higher value; submaximal glutamate (EC20) added with thallium
# Chain of UniProt P70579 (P70579 whole entry, looked up): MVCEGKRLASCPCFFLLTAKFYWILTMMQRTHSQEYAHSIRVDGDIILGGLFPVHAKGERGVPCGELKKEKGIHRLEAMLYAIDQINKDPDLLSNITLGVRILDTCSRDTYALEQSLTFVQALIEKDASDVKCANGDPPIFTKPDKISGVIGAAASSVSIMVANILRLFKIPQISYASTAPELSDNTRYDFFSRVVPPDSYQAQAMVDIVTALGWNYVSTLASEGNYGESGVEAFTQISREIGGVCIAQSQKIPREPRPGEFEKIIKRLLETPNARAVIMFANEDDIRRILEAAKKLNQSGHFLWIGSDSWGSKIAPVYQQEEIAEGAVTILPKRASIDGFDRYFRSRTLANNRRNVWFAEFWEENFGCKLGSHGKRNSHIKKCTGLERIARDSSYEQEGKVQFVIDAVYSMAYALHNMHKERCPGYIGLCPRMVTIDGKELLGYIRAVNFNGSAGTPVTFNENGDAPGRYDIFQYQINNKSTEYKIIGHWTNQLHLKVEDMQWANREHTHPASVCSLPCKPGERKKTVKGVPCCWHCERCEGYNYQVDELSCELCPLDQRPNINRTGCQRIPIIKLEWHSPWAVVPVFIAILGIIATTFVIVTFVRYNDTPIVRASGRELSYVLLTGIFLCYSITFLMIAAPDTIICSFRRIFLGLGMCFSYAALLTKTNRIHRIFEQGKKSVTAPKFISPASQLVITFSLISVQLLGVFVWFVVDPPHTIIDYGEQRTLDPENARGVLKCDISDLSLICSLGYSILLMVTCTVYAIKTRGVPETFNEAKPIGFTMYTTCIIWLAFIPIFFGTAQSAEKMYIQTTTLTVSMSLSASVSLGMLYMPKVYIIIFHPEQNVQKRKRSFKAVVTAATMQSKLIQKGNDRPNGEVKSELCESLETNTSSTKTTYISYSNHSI
row,Structure (SMILES),z-score
1,Cn1c(=O)c2c(nc(N3CCOCC3)n2CCNC2=NCCC2)n(C)c1=O,-0.452
2,COC(=O)CCN(C1CCCCC1)S(=O)(=O)c1ccc(S(=O)(=O)NC2CCCCC2)cc1,0.178
3,CCCNC(=O)COC(=O)c1cc(SC)ccc1Cl,0.561
4,O=C(Cc1ccccc1)NCCS(=O)c1ccc(Cl)cc1 (stereo not drawn),0.00521
5,c1ccc(COn2c(-c3ccccc3)nc3c2CCc2nonc2-3)cc1,0.214
6,COc1ccc2[nH]c3nc(SCC(=O)Nc4ccc5c(c4)OCO5)nnc3c2c1,-0.184
7,COc1ccc(CNCCC(c2ccc(F)cc2)c2ccc(OC)cc2)cc1 (stereo not drawn),active: 3.72
8,COc1ccc(OCCNS(=O)(=O)Cc2ccccc2)cc1,-0.225
9,O=c1[nH]c(CN(CCc2ccccc2)S(=O)(=O)c2ccc(Cl)cc2)nc2ccccc12,-0.0934
10,O=C(NCC1CCCO1)c1c(O)c2c([nH]c1=O)CCCC2 (stereo not drawn),2.44
11,Cc1ccc2nc(N/N=C/c3ccccc3F)nc(-c3ccccc3)c2c1,-0.357
12,CCCCOc1ccc(Cc2c(Cl)nc(SC)nc2N2CCOCC2)cc1,0.0392
13,S=C(Nc1ccccc1)Nn1cnnc1,-0.516
14,CC(=O)N1N=C(c2ccccc2)CC1c1cn(Cc2ccccc2)c2ccccc12 (stereo not drawn),-0.369
15,CCOC(=O)c1oc2ccc(CNCCO)c(Cl)c2c1C,0.264
16,CCOC(=O)c1sc(NC(=O)CSc2nnc(-c3ccc(OC)cc3)n2CCOC)nc1C,-0.429
17,COc1ccc(OC)c(-c2cc(C(=O)Nc3sc4c(c3C#N)CCC(C)C4)c3ccccc3n2)c1 (stereo not drawn),-0.306
18,Cc1cc(C)n(-c2ccc(C(=O)Nc3ccc4c(c3)OCCO4)cc2)n1,-0.64
19,CC(=O)N1CCC(=NNS(=O)(=O)c2ccc(C)c([N+](=O)[O-])c2)CC1,-0.189
20,Cc1ccccc1OCCSc1nnc(-c2cccnc2)n1N,-0.233
21,O=[N+]([O-])c1ccc(N2CCN(CCO)CC2)c2ncccc12,-0.0366
22,CN(C)c1ccc(-n2cccc2/C=C2/SC(=Nc3ccc(F)cc3)NC2=O)cc1,-0.196

row,Structure (SMILES),z-score
1,Cc1[nH]nc2c1C(c1ccsc1)C(C#N)=C(N)O2 (stereo not drawn),-0.13
2,O=C(O)Cc1sc(N/N=C\c2ccccc2)nc1-c1ccccc1,-0.231
3,CC(C)Oc1ccc(Cc2c(O)nc(NCCCN(C)C)[nH]c2=O)cc1,0.195
4,Cc1ccc(Cl)cc1NC(=O)COC(=O)CC1CC2CCC1C2 (stereo not drawn),-0.0633
5,COC(=O)c1cccc(NS(=O)(=O)c2ccc(OC)cc2)c1C,-0.504
6,C=CCOc1c(Br)cc(C2C3=C(CCCC3=O)N(C)C3=C2C(=O)CCC3)cc1OCC,-0.728
7,Cc1cc(C)n(CC(=O)N/N=C/c2cc([N+](=O)[O-])ccc2O)n1,-0.556
8,CCSc1ncccc1-c1nc2ccccc2[nH]1,1.12
9,O=C(CN1C(=O)c2ccccc2C1=O)Nc1ccc(-c2nc3ccccc3o2)cc1,0.616
10,CC1Cc2ccccc2N1C(=O)COC(=O)c1c2c(nc3ccccc13)CCCCC2 (stereo not drawn),-0.164
11,COC(=O)CCC(=O)Nc1cccc2ccccc12,0.0119
12,CCOC(=O)CSc1nncc2ccc(OC)c(OC)c12,0.0626
13,O=C(CCCOc1ccccc1)Nc1nncs1,-0.122
14,COc1cccc(CNC(=O)C(=O)NCCc2ccc(OC)c(OC)c2)c1,-0.206
15,CS(=O)(=O)N(CC(=O)NCc1ccco1)c1ccc2c(c1)OCO2,0.526
16,Cc1cccc(-n2c(SCC(N)=O)nc3c(c2=O)C2(CCCC2)Cc2ccccc2-3)c1,-0.351
17,CCN(CC)c1ccc(/C=N/OCC(=O)N2CCCc3ccccc32)cc1,-0.492
18,CC(=O)Nc1nonc1-c1nc2ccccc2n1N(C(C)=O)C(C)=O,-2.35
19,Clc1c(CSc2nc3ccccc3o2)nc2sccn12,1.14
20,Cc1[nH]c2ccccc2c1C(c1ccccn1)N1CCC(C)CC1 (stereo not drawn),0.225
21,CCNS(=O)(=O)c1ccc(NS(C)(=O)=O)cc1,0.152
22,Cc1ccccc1NC(=O)N(C(C)C)C(C)C,0.0628

row,Structure (SMILES),z-score
1,O=C(Nc1cccc2ccccc12)/C(=C/c1cccc([N+](=O)[O-])c1)NC(=O)c1cccs1,0.171
2,O=C(NC12CC3CC(CC(C3)C1)C2)c1ccc(-c2cccc(Cl)c2)o1,-0.167
3,COc1ccc(C(=O)/C=C/c2ccccc2F)c(OC(=O)c2ccc([N+](=O)[O-])cc2)c1,0.0301
4,O=C1NCCCC2c3c(cc(Br)c(O)c3Br)OC12N1CCOCC1 (stereo not drawn),-0.385
5,c1ccc(COc2ccc(-c3csnn3)cc2)cc1,-0.293
6,COc1ccc(S(=O)(=O)NCc2ccc(C(=O)O)cc2)cc1,-0.0701
7,CC1=C(C(=O)OC(C)C)C(c2cncc(-c3ccc(F)cc3)c2)C(C#N)=C(N)O1 (stereo not drawn),-0.367
8,CN=c1scc(C)n1/N=C/c1ccc(O)cc1,0.233
9,CN(Cc1ccccc1)S(=O)(=O)c1ccc(Cl)c(C(=O)NCc2ccc3c(c2)OCO3)c1,-0.224
10,O=C(Nc1cccnc1)c1cnn2c(C(F)F)cc(C3CC3)nc12,-0.0902
11,Cc1ccc(NC2c3ncccc3C(=O)N2C2CCCCC2)cc1C (stereo not drawn),-0.606
12,CCOCCn1c(N2CCN(c3ccc(OC)cc3)CC2)nc2c1c(=O)[nH]c(=O)n2C,-0.282
13,Cc1cccc(N2CCN(S(=O)(=O)c3ccc4c(c3)n(C)c(=O)c(=O)n4C)CC2C)c1 (stereo not drawn),-0.314
14,CN1CCc2c(sc3c2C(=O)NC(c2ccccn2)N3)C1 (stereo not drawn),-0.0508
15,COc1ccc(/C=C/C(=O)OCC(=O)Nc2ccc(C)cc2)cc1S(=O)(=O)N1CCOCC1,0.875
16,COc1ccc(OCC(=O)N2CCN(S(=O)(=O)c3ccc(Cl)cc3)CC2)cc1,0.211
17,C=CCn1c(SCc2c(C)noc2C)nc2sc3c(c2c1=O)CCC(C)C3 (stereo not drawn),2.65
18,COCCn1nnnc1CN(CCc1ccc(OC)c(OC)c1)Cc1cc2ccc(C)cc2[nH]c1=O,-0.0984
19,COC(=O)c1cc(=O)n2c(-c3ccc(OC)cc3)csc2n1,0.0497
20,CC1=Nc2ccccc2/C1=C/c1sc(=N)n(-c2nccs2)c1O,0.985
21,Cc1ccc(C(=O)C(C(=O)/C=C/c2ccccc2)=C2SCCCS2)cc1,0.0319
22,Cc1ccc(S(=O)(=O)N2CCN(C(C)C(=O)N3CCCc4ccccc43)CC2)cc1 (stereo not drawn),-0.161

row,Structure (SMILES),z-score
1,CC(C)(C)NC(=O)CSc1nccn1Cc1ccccc1,0.488
2,CCC(C)NC(=O)C1CCN(c2nc(C)cc(C)n2)CC1 (stereo not drawn),0.413
3,CCN1CCN(c2ncc3c(n2)CC(c2cc(OC)c(OC)c(OC)c2)CC3=O)CC1 (stereo not drawn),-0.0538
4,CCCCCn1c(NC(=O)c2ccco2)c(S(=O)(=O)c2ccc(C)cc2)c2nc3ccccc3nc21,0.0549
5,CC(C)(C)n1nc2c(c1NC(=O)COc1ccc3ccccc3c1)CS(=O)(=O)C2,-0.24
6,C/C(N)=C(/C#N)C(=O)CSc1nc2cc(Cl)ccc2c(=O)n1-c1ccc(C)cc1,2.69
7,Clc1ccc(OCCOCCOc2cccc3cccnc23)c(Br)c1,0.0446
8,O=C(CN1C(=O)c2ccccc2C1=O)Nc1cccc2cccnc12,-0.275
9,CCc1nnc(NC(=O)CSc2ncnc3c2cnn3-c2ccc(OC)cc2)s1,0.126
10,Cc1ccc(S(=O)(=O)N2CCN(C(=O)N(C)C)CC2)cc1C,-0.0584
11,c1ccc(CC2CCN(Cc3nc(-c4ccccc4)no3)CC2)cc1,0.83
12,CCOC(=O)CSC1=Nc2ccccc2C2=NC(CC(=O)NCc3ccc4c(c3)OCO4)C(=O)N12 (stereo not drawn),-0.235
13,COc1ccc(Cn2nnnc2C(c2ccccc2Cl)N2CCN(C3CCCC3)CC2)cc1 (stereo not drawn),1.79
14,COc1cccc(OC)c1C(=O)NC(C)c1ccccc1 (stereo not drawn),-0.155
15,COc1ccccc1OCc1nc2ccccc2[nH]1,-0.305
16,CC(C)C(c1nnnn1Cc1ccco1)N1CCN(C2CCCC2)CC1 (stereo not drawn),-0.255
17,C/C(NC1CCCC1)=C(/C#N)C(N)=O,-0.0372
18,COc1ccc(NC(=S)N/N=C2\CC(C)(C)Oc3ccc(OC)cc32)cc1,-0.239
19,Cc1nc2ccc(Br)cn2c(=O)c1Cl,0.176
20,CC(/C=N/n1c(-c2cc(C)[nH]n2)n[nH]c1=S)=C\c1ccccc1,-0.302
21,O=C(c1ccco1)N(Cc1ccc([N+](=O)[O-])cc1)c1ccc(Br)cc1,-0.255
22,CC1=Nn2c(nc(-c3ccccc3)c2-c2ccccc2)NC(=O)C1Br (stereo not drawn),0.0626

row,Structure (SMILES),z-score
1,COc1ccc2nc(/N=C(\N)NC(=O)N3c4ccccc4Sc4ccccc43)nc(C)c2c1,-0.187
2,O=S1(=O)CCC(NS(=O)(=O)c2cccc3cccnc23)C1 (stereo not drawn),0.203
3,NS(=O)(=O)c1ccc(N/C=C\C(=O)c2cccc3ccccc23)cc1,-0.217
4,COc1ccc(C2=NN(C(=O)CSc3cn(C)c4ccccc34)C(c3ccc(OC)cc3)C2)cc1 (stereo not drawn),-0.564
5,CCCCCC(=O)Nc1nc(C)c(-c2csc(Nc3cc(OC)ccc3OC)n2)s1,-0.217
6,CC(=O)c1c(C(C)=O)c(C)n(-c2nc(-c3cccs3)c(C)s2)c1C,-2.87
7,CCCCn1c(=O)c(C(=O)c2ccccc2)nc2ccccc21,-0.617
8,Cc1ccc2[nH]c(=O)c(CN(CCN3CCOCC3)C(=O)Nc3ccc(F)cc3)cc2c1,-0.382
9,CC1(C)Cc2c(C#N)c(NCCCO)nc(-c3ccccc3)c2CO1,-0.107
10,Brc1ccc(C2=Nn3c(nnc3-c3cccnc3)SC2)s1,-0.134
11,CC(=O)c1cccc(NC(=O)c2ccc(S(=O)(=O)N3CCCCC3)cc2)c1,-0.0856
12,O=C(Nc1ccccc1)Nc1ccccc1C(=O)NCc1ccccc1,-0.329
13,Cc1cc(C(=O)NCCCOC(C)C)c2ccccc2n1,-0.139
14,O=C(NCCCN1CCOCC1)c1cc(C(=O)C2CC2)c[nH]1,-0.179
15,CONc1nc(NC(C)(C)C)nc(OCC#N)n1,0.0532
16,Cc1ccc(C(=O)c2cc([N+](=O)[O-])ccc2N2CCCCC2)cc1C,0.391
17,NS(=O)(=O)c1ccc(CCNC(=O)CCCCCNc2nc(=S)[nH]c3ccccc23)cc1,-0.55
18,Cc1onc(-c2ccccc2)c1C(=O)n1cccn1,0.00196
19,Cn1cc(C(=O)c2ccc(Cl)cc2Cl)cc1C(=O)N/N=C(\N)COc1ccccc1,-1.68
20,CCCCN(CC)CCCNC(=O)CC1Nc2ccccc2NC1=O (stereo not drawn),0.0522
